# Reference: PubChem BioAssay AID1240 (Sanford-Burnham Center for Chemical Genomics, 2008)
# Hit rate of the full screen: of about 50,000 compounds, about 800 (1.6%) showed an effect of 50% or more. The list shows a part of the results.
# Biological target: Bcl-2-like protein 10 (Homo sapiens) (UniProt Q9HD36)
# Test: TR3 peptide-Bcl-B binding displacers, biochemical primary FP assay, phenotype converters (AID 1240);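 note: 0% = Bcl-B with tracer peptide and DMSO and 100% = tracer peptide lacking Bcl-B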
# Settings: GST-Bcl-B / FITC-TR3 peptide fluorescence polarization; stronger effect = higher value; compound at 3.75 mg/L
# Chain of UniProt Q9HD36 (Q9HD36 whole entry, looked up): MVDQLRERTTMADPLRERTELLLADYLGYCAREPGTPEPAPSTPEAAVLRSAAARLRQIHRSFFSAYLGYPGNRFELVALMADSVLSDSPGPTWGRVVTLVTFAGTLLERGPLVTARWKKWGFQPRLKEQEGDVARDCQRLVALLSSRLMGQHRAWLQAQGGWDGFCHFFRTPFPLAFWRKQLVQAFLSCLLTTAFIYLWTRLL
row,Structure (SMILES),displacement
1,COC(=O)C(NC(=O)C(C)(C)C)C12CC3CC(CC(C3)C1)C2 (stereo unspecified),6.1%
2,CCOc1ccc(-n2nc3ccc(NC(=O)c4ccco4)cc3n2)cc1,-10.3%
3,O=C1c2ccccc2NC(c2cccc([N+](=O)[O-])c2)N1O (stereo unspecified),11%
4,COC(=O)/C=C1/N/C(=N/c2nc3ccccc3o2)NC1=O,-4.2%
5,O=C(Cc1ccccc1)Nc1ccc2oc(-c3ccc(Cl)cc3Cl)nc2c1,12.8%
6,COc1ccc(CCNC(=O)C(=O)NCc2cccnc2)cc1,-2.9%
7,O=C(NNC(=O)c1cccc2ccccc12)c1cccc(Cl)c1,-13.5%
8,O=C1C(c2ccccc2)C(c2cccs2)NC(c2cccs2)C1c1ccccc1 (stereo unspecified),15.7%
9,COCCCNC(=O)CN(c1ccc(Cl)cc1)S(=O)(=O)c1ccccc1,12.6%
10,COC(=O)COc1ccc2c(=O)c(Oc3ccc(C(C)(C)C)cc3)coc2c1,8%
11,COc1ccc(/C=C2/Sc3ccccc3C2=O)cc1Br,116%
12,COc1ccc(CCNC(=O)c2ccc([N+](=O)[O-])c(C)c2)cc1OC,5.9%
13,CC1CCN(C(=O)c2ccc(N3C(=O)c4ccccc4C3=O)cc2)CC1,-11.9%
14,Cc1cccc(C(=O)Nc2ccc(NC(=O)COc3ccccc3C)cc2)c1,1.7%
15,COC(=O)CN1C(=O)/C(=C\c2ccc(F)cc2)SC1=S,1.2%
16,Cc1ccc(CN2CCN(/N=C\c3cc(Br)ccc3O)CC2)cc1,-6%
17,COc1c(Cl)cc(C(=O)Nc2cc(-c3nc4cc(Cl)ccc4o3)ccc2C)cc1Cl,7.7%
18,CC1CCC(C(C)C)C(OC(=O)C[n+]2cccc(C(N)=O)c2)C1 (stereo unspecified),5.2%
19,CCOC(=O)c1ccc(NC(=NC)SC2CC(=O)N(c3ccccc3F)C2=O)cc1 (stereo unspecified),-4.5%
20,Cc1ccc(C)c(NC(=O)CSc2nc3ccccc3s2)c1,-14.8%
21,CNc1nc(Nc2ccccc2)nc(OCC(F)(F)F)n1,-3.9%
22,O=C(CN1C(=O)/C(=C/c2ccccc2)SC1=S)Nc1cccc(C(=O)O)c1,13.9%
23,O=C(N/N=C/c1ccccc1O)C12CC3CCC(CC(C3)C1)C2,-2.8%

row,Structure (SMILES),displacement
1,CC1CCCN(CC(O)COc2ccc(Cl)cc2)C1 (stereo unspecified),4.8%
2,Cc1nc2ccccc2n1C(=O)c1ccco1,-3.1%
3,CCc1ccc(NC(=O)CSc2nc3ccc(C)cc3[nH]2)cc1,-2.6%
4,COc1ccc(C(=O)Nc2ccc([N+](=O)[O-])cc2Br)cc1,-0.3%
5,CCOC(=O)Cc1nnc2c(Nc3cccc(Br)c3)nc3nonc3n12,-9.5%
6,O=C1C=C(Nc2ccc(O)cc2)CC(c2ccccc2)C1 (stereo unspecified),0.4%
7,O=C(COc1ccccc1)Nc1nc2ccccc2s1,3.3%
8,O=C(N/N=C/c1ccc(-c2cccc([N+](=O)[O-])c2)o1)c1cccc([N+](=O)[O-])c1,6.3%
9,Cc1ccc2nc(C)c(C(=O)NN=C3CCN(C)CC3)n2c1,-16.3%
10,C=CCn1c(-c2ccc(OC)cc2)n[nH]c1=S,4.7%
11,CC1CCCN(C(=O)c2sc3cc([N+](=O)[O-])ccc3c2Cl)C1 (stereo unspecified),-6.2%
12,Cc1ccc(NC(=O)c2ccccc2C(=O)O)c([N+](=O)[O-])c1,11.5%
13,Cc1ccnc(NC(=O)C(C)Oc2cccc(Cl)c2)c1 (stereo unspecified),8.9%
14,Cc1ccc(NC(=O)c2ccc(C(=O)O)cc2C(=O)O)c(C)c1,10.8%
15,CC(=O)N1C(=O)/C(=C2\SC(=S)N(c3cccc(Br)c3)C2=O)c2ccccc21,7.1%
16,COc1ccc(C2C3=C(CC(C)(C)CC3=O)Nc3[nH]c(=O)[nH]c(=O)c32)cc1 (stereo unspecified),0.8%
17,COc1ccc(CN2CCN(C3CCCC3)CC2)c(OC)c1OC,-14.3%
18,NC1=NC(=O)C(CC(=O)Nc2ccc([N+](=O)[O-])cc2)S1 (stereo unspecified),-11.5%
19,COc1ccc(/C=C(/C#N)C(N)=O)cc1O,23%
20,COc1cc(C(=S)N2CCOCC2)cc(OC)c1OC(=O)c1ccc(C)cc1,14.1%
21,COc1ccc(S(=O)(=O)N2CCCC2)cc1OC,-8.9%
22,CC(=O)/C(=C/c1ccc(N(C)C)cc1)[N+](=O)[O-],-1.6%
23,Cc1ccc(N=C(NO)C(=Nc2ccc(C)c(C)c2)NO)cc1C,8.4%

row,Structure (SMILES),displacement
1,O=C(O)c1ccc(C(=O)N(C2CCCCC2)C2CCCCC2)cc1,7.9%
2,CCCCCCCCC(=O)N/N=C/c1ccccn1,-1.4%
3,C=CCC(Nc1ccccc1)c1ccco1 (stereo unspecified),-9.8%
4,COc1ccc(Cl)cc1NC(=O)C1C2CCC(C2)C1C(=O)O (stereo unspecified),-3.1%
5,CCN1C(=O)/C(=C/c2cccc(Cl)c2Cl)SC1=S,-0.2%
6,O=C(c1ccc(F)cc1)N1CCN(c2ccc([N+](=O)[O-])cc2Cl)CC1,8.4%
7,Cc1cccc(OCC(=O)N/N=C/c2ccc(OC(=O)c3cccs3)cc2)c1,4.2%
8,O=C(CSc1nnc(CCCN2C(=O)c3cccc4cccc(c34)C2=O)n1-c1ccccc1)NCCCO,11.2%
9,O=C(O/N=C(/c1ccccc1)c1ccncc1)c1ccc(Br)cc1,13.6%
10,O=C(Nc1ccccc1Cl)c1cccc(NC(=O)C(F)(F)F)c1,4.7%
11,COc1ccccc1N/N=C(/C#N)C(=N)N1CCOCC1,-5.8%
12,COc1ccc(C)cc1NC(=O)C(=O)NCc1ccc(C)cc1,12.1%
13,Cc1ccc(OCC(=O)Nc2ccc(C)cc2[N+](=O)[O-])c(C)c1,6.1%
14,Cc1ccn2c(NC(=O)c3ccco3)c(-c3ccccc3)nc2c1,10.8%
15,COC(=O)c1c(NC(=O)c2ccco2)sc2c1CCC(C)C2 (stereo unspecified),0.1%
16,COc1ccccc1OCCCN1CCOCC1,-1.3%
17,COC(=O)c1c(NC(=O)c2cncc(Br)c2)sc2c1CCC2,16.4%
18,O=[N+]([O-])c1ccccc1S(=O)(=O)N1CCN(c2ccccn2)CC1,0.3%
19,Cc1c(Cl)cccc1N=C1NC(=O)/C(=C/c2ccc(OC(C)C)cc2)S1,-28.3%
20,Cc1c(CCNC(=O)Nc2ccccc2)c2ccccc2n1Cc1ccccc1,9.1%
21,O=C(/C=N/O)NCCN1CCCCC1,9.2%
22,O=C(CCCOc1ccc(Cl)cc1Cl)Nc1nc(-c2ccc([N+](=O)[O-])cc2)cs1,0.3%
23,CC1SC(c2ccc(Cl)cc2Cl)NC1=O (stereo unspecified),-5.4%

row,Structure (SMILES),displacement
1,CCCOC(=O)c1ccc(NC(=O)c2ccc(OCc3ccccc3)cc2)cc1,-3.3%
2,Cc1ccc(C(=O)N/C(=C/c2ccccc2Cl)C(=O)NN)cc1,-11.6%
3,Cc1ccccc1NC(=O)C1CC(=O)N(c2ccc(Br)cc2)C1 (stereo unspecified),-3.7%
4,CCN(CC)c1ccc(C=Nc2cccc(C(N)=O)c2)c(O)c1,-0.3%
5,COC(=O)c1cc(C)sc1NC(=O)c1sc2cc(Cl)ccc2c1Cl,-2.4%
6,O=S(=O)(Nc1nc2ccccc2nc1Nc1cccc(O)c1)c1ccc(Cl)cc1,7.1%
7,Cc1cc(NC(=O)c2ccccc2[N+](=O)[O-])ccc1-c1cc2ccccc2oc1=O,0.4%
8,Cc1ccc(C(=O)Nc2nc(-c3ccc(F)cc3)cs2)cc1[N+](=O)[O-],6.9%
9,CCOC(=O)c1ccccc1NC(=O)CN(c1ccc(OCC)cc1)S(=O)(=O)c1ccc(SC)cc1,-2.2%
10,Cc1cccc(OCC(=O)Nc2cccc(C(F)(F)F)c2)c1,4.5%
11,COc1ccc(-c2nc3cc(NC(=S)NC(=O)c4ccco4)ccc3o2)cc1OC,23%
12,COC(=O)C1=C(C)NC(=S)NC1c1cccs1 (stereo unspecified),11.8%
13,O=C1OC(Nc2ncccn2)(c2ccccc2)c2ccccc21 (stereo unspecified),-7.3%
14,Cc1cc(Cl)ccc1OCC(=O)N1CCC(C(N)=O)CC1,10.6%
15,COc1ccc(O)c(-c2cc(-c3ccc(Br)cc3)n[nH]2)c1,6.2%
16,C=CCNC(=O)C(=O)NCc1cccnc1,7.7%
17,CC(=O)C1=C(O)C(=O)N(CC2CCCO2)C1c1ccc2c(c1)OCO2 (stereo unspecified),-4.1%
18,COc1cc(/C=C2/SC(=S)N(CCC(=O)Nc3nnc(C)s3)C2=O)cc(OC)c1OC,41.4%
19,CC(=O)c1ccc2c(c1)c1ccccc1n2C,14.3%
20,NS(=O)(=O)c1ccc(NC(=O)c2c(Cl)cccc2Cl)cc1,-11.3%
21,O=C(/C(=N/O)n1cnc([N+](=O)[O-])n1)c1ccccc1,10.4%
22,COc1ccc(OC)c(C(=O)c2coc3ccc(O)c(CN(C)C)c23)c1,14.1%
23,O=Nc1c(-c2ccccc2)[nH]n(-c2ccccc2)c1=O,12.4%

row,Structure (SMILES),displacement
1,Cc1c(C(=O)Nc2ccc(I)cc2Cl)oc2ccccc12,10.9%
2,CC1=C(C(=O)OCCc2ccccc2)C(c2ccsc2)C2=C(CC(C)(C)CC2=O)N1 (stereo unspecified),-5.9%
3,COc1ccc(S(=O)(=O)n2cnc3ccccc32)cc1[N+](=O)[O-],-6.7%
4,O=C(NCCNc1cc(Cl)ccc1[N+](=O)[O-])c1ccccc1Cl,7.6%
5,CC(=O)Nc1ccc(S(=O)(=O)NC(C)C2C3CC4CC(C3)CC2C4)cc1 (stereo unspecified),0.3%
6,CCC1(C)CC(CC(=O)O)(c2ccccc2OC)CCO1 (stereo unspecified),-96.8%
7,COc1cccc(NC(=O)CN(c2ccc(C(C)C)cc2)S(=O)(=O)c2ccccc2)c1,7.1%
8,O=S(=O)(c1cccc2nsnc12)N1CCN(C(c2ccccc2)c2ccccc2)CC1,13.5%
9,O=C(Nc1ccccc1C(=O)N=Nc1c(O)[nH]c2ccc(Br)cc12)c1ccccc1,-10.8%
10,Clc1ccc(-c2nc(N3CCOCC3)c3ccccc3n2)cc1Cl,16.9%
11,O=C(Oc1c(C(=O)Nc2ccc(Cl)c([N+](=O)[O-])c2)ccc2ccccc12)c1ccccc1,1.9%
12,CCCc1cc2c(-c3ccccc3)cc(=O)oc2cc1OC(C)C(=O)OC (stereo unspecified),9.2%
13,CCOC(=O)c1c(-c2ccc(C)cc2)csc1NC(=O)C1CC1,11.2%
14,Cc1cccc(C)c1OCC(O)CN1CC(C)OC(C)C1 (stereo unspecified),12.7%
15,COc1ccccc1/C=N/Nc1nnc(-c2ccccc2)c(-c2ccccc2)n1,6.3%
16,Cc1c(C(=O)N2CCN(c3cccc(Cl)c3)CC2)cccc1[N+](=O)[O-],-0.3%
17,Cc1ccccc1OCC(=O)N1CCCc2ccccc21,-4.9%
18,Cc1ccc(C(=O)N/C(=C\c2cccc(Oc3ccccc3)c2)C(=O)NCCCn2ccnc2)cc1,6.9%
19,CCCN(CCC)c1ccc(/C=C2\SC(=S)NC2=O)cc1,0.3%
